Assay results taken from PubChem BioAssay AID463173 (ICCB-Longwood Screening Facility, Harvard Medical School, 2010).
The whole screen tested about 52,000 compounds, of which about 1,700 (3.3%) were called active. No stated cut-off is given here; in the data, active means survival mostly below about 52% (no sharp cut-off); inactive means mostly above about 56%. Some of the results follow.

The compounds below were run on Wild type (assay: S. aureus survival, RN4220 and DeltatarO strains – OD600, teichoic acid synthesis inhibitors, primary screen (AID 463173)). Conditions: S. aureus RN4220 wild type/DeltatarO growth, OD600, 18 h, stronger effect = lower value, screened at 18.75 µg/mL (by protocol).

SMILES | survival
Cc1ccccc1NC(=O)CSc1nc(-c2ccco2)nc2cc(=O)[nH]n12 | inactive: 79%
Cc1ccc(C(=O)NC2(C(F)(F)F)N=C(c3ccccc3)N(Cc3ccccc3)C2=O)cc1 (stereo not given) | inactive: 76%
Cc1ccc(C(=O)Oc2cc(-c3ccc4c(c3)OCO4)cc(=O)c3c(C)oc(C)c23)cc1 | inactive: 114%
COc1ccccc1NC(=O)Cn1c(=O)n(CC(=O)NCc2ccccc2Cl)c(=O)c2sccc21 | inactive: 141%
COc1ccc(C(=O)Oc2c(Sc3ccc(C)cc3)c(C)nn2C(C)(C)C)cc1OC | inactive: 127%
O=C(c1ccc2c(c1)N(Cc1ccc(Cl)cc1)C(=O)c1ccccc1S2=O)N1CCCCC1 (stereo not given) | inactive: 88%
CCOc1ccc(CNC(=O)c2cc(-c3ccc(Cl)s3)nc3ccccc23)cc1 | inactive: 89%
Cc1ccc2c(CNCc3ccc(C)o3)c(C(=O)O)n(Cc3ccc(F)cc3)c2c1 | inactive: 84%
CN(C)c1nc(NCCNS(=O)(=O)c2ccc(Cl)cc2)nc(N(C)C)n1 | inactive: 117%
CCOC(=O)C1CCN(C(c2ccc(C)cc2)c2c(O)cc(C)n(CCOC)c2=O)CC1 (stereo not given) | inactive: 88%
CCOc1ccc(-c2cc(CCCC(=O)NCCc3cc(OC)c(OC)c(OC)c3)no2)cc1 | inactive: 59%
Cc1ccc(NC(=O)Cn2cc(C(=O)C3CCCCC3)c3ccccc32)cc1 | inactive: 87%
Cc1cccc(NC(=O)CCNS(=O)(=O)c2ccc3c(c2)CCN3C(=O)C2CC2)c1 | inactive: 93%
COC(=O)c1cc(-c2ccc(OC)c(OC)c2)nc2ccccc12 | inactive: 106%
O=C1NC(c2ccccc2)/C(=C(\O)c2ccccc2)C1=O (stereo not given) | inactive: 112%
CC(C)(C)NSc1nc2ccccc2s1 | inactive: 68%
COc1ccc(CCNC(=O)CCCn2nc(C)c3sc4ccccc4c3c2=O)c(OC)c1 | inactive: 81%
CCOc1ccc(NC(=O)Cn2c(=O)n(CCCS(=O)(=O)C3CCCCC3)c(=O)c3ccccc32)cc1 | inactive: 85%
Cc1ccc(NC(=O)C2CCC(CNS(=O)(=O)c3cccc4nsnc34)CC2)c(Cl)c1 (stereo not given) | inactive: 78%
COC(=O)c1c(C)oc2ccc(N(C(=O)c3ccncc3)S(=O)(=O)c3cc(C)ccc3C)cc12 | inactive: 75%
Cc1ccc(C(=O)Nc2ccccc2)cc1S(=O)(=O)Nc1ccccc1 | inactive: 70%
COc1ccc(N2CCN(C(=O)C3CCN(S(=O)(=O)c4cn(C)cn4)CC3)CC2)cc1 | inactive: 88%
Cc1ccc(OC(=O)CSc2nnc(-c3ccc4c(c3)OCO4)o2)cc1 | inactive: 89%

SMILES | survival
Cc1cccc(N(C)C(=O)Cc2c(C(=O)O)[nH]c3ccccc23)c1 | inactive: 120%
Cc1ccc(-n2ncc3c(N4CCC(Cc5ccccc5)CC4)ncnc32)cc1C | inactive: 92%
CC(C)N(C(=O)c1cccs1)C(C)C | inactive: 100%
COC(=O)c1cc2occc2n1CC(=O)Nc1ccc(C)cc1Cl | inactive: 95%
COc1ccc(CCNc2nc3cc(OC)c(OC)cc3c3nc(-c4ccccc4)nn23)cc1OC | inactive: 129%
CCOc1ccc(-c2nc(CSCC(=O)NCc3ccc(C)cc3)c(C)o2)cc1 | inactive: 73%
Cc1cccc(N2CCN(c3ncnc4c3nc3n4CCCCC3)CC2C)c1 (stereo not given) | inactive: 75%
COC(=O)c1cc(NC(=O)c2sc3ccccc3c2Cl)cc(C(=O)OC)c1 | inactive: 74%
Cc1ccc(C)c(-n2nnc(-c3nc(-c4ccccc4C)no3)c2C)c1 | inactive: 91%
O=C(C(F)F)N1CCN(c2ccccc2)CC1 | inactive: 99%
COc1ccc(-c2nn(-c3ccc(C)cc3)c3c2cnc2ccc(C)cc23)cc1OC | inactive: 86%
Cc1cc(N)cc(C(=O)O)c1O | inactive: 121%
COc1cccc(NC(=O)c2cc3c(-c4ccc(Cl)cc4)nn(C)c3s2)c1 | inactive: 117%
Cc1coc2cc3oc(=O)c(CCC(=O)NCc4ccccc4Cl)c(C)c3cc12 | inactive: 87%
CCCN1CCN(CCCNC(=O)C(CC)n2nc(C)n3c(cc4occc43)c2=O)CC1 (stereo not given) | inactive: 87%
O=C(O)c1cccc(-n2cnc3cccnc32)c1 | inactive: 74%
O=C(NCC(c1cccnc1)N1CCN(Cc2ccccc2)CC1)C(=O)Nc1cccc(Cl)c1 (stereo not given) | inactive: 82%
CCN(CC)CCNC(=O)c1cn(CC)c2ccc(S(=O)(=O)N(C)C3CCCCC3)cc2c1=O | inactive: 88%
CCC(C(=O)NC1CCCCC1)n1c(SCc2cccc(C)c2)nc2ccncc21 (stereo not given) | inactive: 69%
CC(C)n1nnnc1SCC(=O)NCc1ccco1 | inactive: 112%
Cn1c(C(=O)N2CCC(C(=O)NCCc3ccccc3)CC2)cc2sccc21 | inactive: 81%
O=C(CN(C(=O)c1ccc(Cl)nc1)C1CCCC1)NCc1ccc2c(c1)OCO2 | inactive: 104%
CN(C(=S)SCC1=CCS(=O)(=O)C1)C1CCS(=O)(=O)C1 (stereo not given) | inactive: 112%

SMILES | survival
N#Cc1ccccc1CSc1nnc2ccc3ccccc3n12 | inactive: 86%
COCc1c(Br)c(C)nc2sc3c(=O)n(-c4cccc(Br)c4)nnc3c12 | inactive: 87%
CCN1C(=O)c2ccccc2S(=O)(=O)c2ccc(C(=O)NCc3ccc(OC)cc3)cc21 | inactive: 97%
CC(NC(=O)c1ccco1)c1nc(-c2ccccc2)no1 (stereo not given) | inactive: 83%
Cc1cc(=O)n(CC(=O)NC(C)c2ccccc2)c2c1c(C)nn2-c1cccc(F)c1 (stereo not given) | inactive: 136%
O=C(CN(c1ccc(Cl)c(C(F)(F)F)c1)S(=O)(=O)c1ccccc1)Nc1cccnc1 | inactive: 64%
CCc1ccccc1NC(=O)CSc1nnc(-c2ccccc2)c(-c2ccccc2)n1 | inactive: 69%
COc1cc(OC)cc(-c2cc3nc(C)c(CCC(=O)Nc4ccccc4OC)c(C)n3n2)c1 | inactive: 71%
CC/C(=N/NC(=O)C1C2CCCCC21)c1ccc(O)cc1 (stereo not given) | inactive: 112%
N#CC1=C(N)OC2=C(C(=O)CCC2)C12C(=O)Nc1ccc(F)cc12 (stereo not given) | inactive: 97%
COCCNC(=O)Cn1c(=O)c2cccn2c2ccc(F)cc21 | inactive: 85%
O=C(CC1Nc2ccccc2NC1=O)Nc1ccccc1C(F)(F)F (stereo not given) | inactive: 106%
Cc1ccccc1C(=O)Nc1c(C(=O)Nc2cccc(F)c2)oc2ccccc12 | inactive: 57%
CCc1nnc(NC(=O)c2nc(SC)ncc2Cl)s1 | inactive: 112%
NC(=O)CSc1nc2c(oc3ccccc32)c(=O)n1Cc1ccccc1 | inactive: 66%
CCSc1oc(-c2cccs2)nc1S(=O)(=O)c1ccc(Br)cc1 | inactive: 51%
CCOC(=O)c1c(-c2ccccc2)oc2ccc(N(C(C)=O)S(=O)(=O)c3ccccc3)cc12 | inactive: 70%
O=C(NCc1ccc2c(c1)OCO2)c1ccc2c(c1)N(Cc1ccccc1F)C(=O)c1ccccc1S2=O (stereo not given) | inactive: 93%
CCOc1ccc(Cn2nnc(C(=O)Nc3ccc(Cl)cc3)c2N)cc1 | inactive: 92%
CCCN(C(=O)c1c(C)oc2ncnc(N3CCOCC3)c12)c1ccc(Cl)c(Cl)c1 | inactive: 74%
O=S(=O)(NCC(c1ccco1)N1CCN(c2ccccc2)CC1)c1ccccc1 (stereo not given) | inactive: 81%
CCn1ccc2c(OCC(=O)Nc3ccc(C(C)=O)cc3)cccc2c1=O | inactive: 53%
COc1ccccc1CNC(=O)c1cc2c(-c3ccc(Cl)cc3)nn(C)c2s1 | inactive: 151%

SMILES | survival
COc1ccccc1CNC(=O)C1CCN(C(=O)c2sccc2-n2cccc2)CC1 | inactive: 83%
CN(C1CCCCC1)S(=O)(=O)c1ccc2c(c1)c(=O)c(C(=O)NCc1ccc(F)cc1)cn2C | inactive: 95%
O=C(c1ccc2c(c1)N(Cc1ccc(Cl)cc1)C(=O)c1ccccc1S2(=O)=O)N1CCC(Cc2ccccc2)CC1 | inactive: 93%
O=C(c1ccccc1)C(C(=O)N1CCCCC1)n1ccccc1=O (stereo not given) | inactive: 113%
Cc1ccc(S(=O)(=O)Nc2ccc3[nH]c(=O)sc3c2)cc1C | inactive: 73%
CCN(CC)Cc1cc(C(=O)O)oc1C(C)(C)C | inactive: 106%
O=C(Nc1cc2c(cc1C(=O)c1ccc(Br)cc1)OCCO2)c1ccc(Cl)cc1 | inactive: 92%
Cc1ccc(Nc2nc(C(=O)N3CCC(C)CC3)cs2)cc1 | inactive: 117%
COc1cccc(-n2c(=O)c3cc(OC)c(OC)cc3n(CC(=O)Nc3ccccc3)c2=O)c1 | inactive: 127%
CCOc1ccc(NC(=O)CSC2=Nc3ccccc3C3=NC(CC(=O)NCc4ccccc4OC)C(=O)N23)cc1 (stereo not given) | inactive: 136%
O=C(c1ccc2c(c1)N(Cc1ccc(F)cc1)C(=O)c1ccccc1S2(=O)=O)N1CCCCCC1 | inactive: 92%
Cc1ccc(N2CC(NC(=O)c3ccco3)CC2=O)cc1 (stereo not given) | inactive: 80%
Cc1ccc(C)c(S(=O)(=O)c2cn(C)c3cc(F)c(F)cc3c2=O)c1 | inactive: 81%
CCc1cccc(NC(=O)c2c(N3CCCC3=O)c3cc(C)ccc3n2C)c1 | inactive: 91%
CC(=O)Nc1ccccc1-c1nc2ccccc2n(CC(=O)Nc2ccc(C)c(Cl)c2)c1=O | inactive: 103%
COc1ccc(CCn2c(=O)c3ccccc3n(CC(=O)Nc3cccc(C)c3)c2=O)cc1OC | inactive: 89%
Cc1oc(-c2ccccc2F)nc1CS(=O)(=O)CC(=O)N1CCN(c2ccc(Cl)cc2)CC1 | inactive: 53%
CCn1c(SC)nnc1C1CCCN(C(=O)c2ccccc2-c2ccccc2)C1 (stereo not given) | inactive: 120%
Cc1ccc(S(=O)Cc2ccc(C(=O)NC3CCCCCC3)o2)cc1 (stereo not given) | inactive: 146%
Cc1ccc(NC(=O)CSc2nc3c(c(=O)[nH]2)CCC3)cc1Cl | inactive: 77%
Cc1[nH]c2ccc(C(=O)Nc3ccc(F)cc3)cc2c1C | inactive: 140%
